Measurements taken from PubChem BioAssay AID493208 (National Center for Advancing Translational Sciences (NCATS), 2011).
About 340 (0.77%) of roughly 44,000 compounds were called active. Inconclusive results (about 5%) are left out. Calls come from the whole dose curve; as a rule, active = well fitted inhibition curve with a large enough effect; inconclusive = small, poorly fitted or top-dose-only effect; inactive = flat fitted curve, though single readings scatter. This is one part of the list.

Assay: Acumen qHTS Assay for Inhibitors of the mTORC1 Signaling Pathway in MEF (Tsc2-/-, p53-/-) Cells: Sytravon;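 note: plate controls were DMSO for no effect and rapamycin for full effect; nearly all actives have a fitted effect of over 50% in size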
Settings: phospho-rpS6 immunofluorescence/PI, 24 h; series mostly up to 38.3 µM; activity change, negative = inhibition: at the top concentration
Method in brief: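 Plate MEFs (Tsc2-/-, p53-/-, empty vector) in DMEM/10% FBS; after 24 h add compound, incubate 24 h at 37 degree Celsius; fix in PFA/TX-100, block, stain phospho-rpS6 and 10 uM PI; scan at 488 nm; report % positive cells.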

Activity change, negative = inhibition, inactive:
CCCN1CCN(CCNC(=O)Nc2ccc(OC)cc2OC)CC1 3.16%
O=C(CC1C(=O)N(c2ccccc2)C(=O)N1CCC1=CCCCC1)Nc1ccc(F)cc1 (configuration not stated) -1.81%
Cc1ccccc1NC(=O)CSc1nc(-c2ccccc2C)nc2cc(=O)[nH]n12 -5.6%
COCCNC(=O)Cn1nc(N2CCN(c3ccccc3OC)CC2)ccc1=O -7.45%
CCOc1ccc(NC(=O)N2CCN(S(=O)(=O)c3ccc4c(ccn4C)c3)CC2)cc1 0.895%
COc1ccccc1N(CC(=O)NCCSCc1ccccc1)S(=O)(=O)c1ccc(C)cc1 6.86%
CC(=O)N1CCN(c2csc3ccc(F)cc3c2=O)CC1 -6.28%
CCc1ccc(C(=O)c2cn(CC(=O)Nc3ccc(F)cc3)c3ccc(OC)cc3c2=O)cc1 0.378%
COc1ccc(NC(=O)Cn2c(=O)n(C(C)C)c(=O)c3oc4ccccc4c32)cc1Cl -1.59%
O=C1CN(C(=O)Cc2ccc(F)cc2)C(c2ccccc2)c2cc(Cl)ccc2N1 (configuration not stated) 0%
Cc1nn(-c2ccccc2)c(OC(=O)C(C)C)c1Sc1ccccc1 -0.98%
CCc1ccccc1N(C)C(=O)Cc1c(C(=O)O)c(C)cn1C -3.78%
Brc1cccc(CNCCSc2nnnn2-c2ccccc2)c1 -0.501%
COc1ccc(-c2cc(C(C)=O)c(C)n2CCC(=O)NCc2ccccc2OC)cc1 0.26%
Cc1cc(C)c(NC(=O)C(C)n2nc(-c3ccc(C)c(C)c3)ccc2=O)c(C)c1 (configuration not stated) 0.438%
Cc1ccc(NC(=O)Cc2ccc(-n3c(C)nc4cccnc43)cc2)cc1C -8.76%
Cc1cc(C)cc(OCC(=O)NCCc2nc3ccccc3[nH]2)c1 5.1%
Cc1ccc(Cl)cc1NC(=O)C(C)n1nnc2sc(-c3ccccc3)cc2c1=O (configuration not stated) 1.25%
CCOC(=O)c1cc(-c2ccccc2)n(CCCC(=O)Nc2ccc(C(C)C)cc2)c1C -21.1%
CCCCOc1ccc(S(=O)(=O)Nc2ccc(-c3ccc(N4CCCCCC4)nn3)cc2)cc1 0.0286%
COc1cccc(CNC(=O)CCc2cn(Cc3ccccc3Cl)c3ccccc23)c1 -3.71%
CCOC(=O)c1c(C)oc2ncnc(N3CCN(c4ccccc4OC)CC3)c12 2.09%
COc1ccc(Cn2c(SCc3ccc(C(=O)NC4CCCC4)cc3)nc3ccncc32)cc1 -1.97%
COc1cc(OC)cc(C(=O)Nc2ccccc2-c2nc3ccccc3s2)c1 -2.71%
CN(C)c1ccc(C(CNC(=O)c2ccc(C(C)(C)C)cc2)N2CCOCC2)cc1 (configuration not stated) 5.11%
COc1ccc2[nH]c(C)c(CCNS(=O)(=O)c3cc(F)ccc3OC)c2c1 -0.128%
CCCOc1cccc(C(=O)Nc2cccc(NC(=O)c3ccc(C(C)(C)C)cc3)c2)c1 -5.05%
